# In the supplement of paper PMC8728848:
# The list shows a part of the results.
# B1: PX9937D-bvu-500-26-500 (Bacteroides vulgatus) (protein)
# chain: DPVSDITDLNYWKTPEQFDSFVFGLHSRFRSHSWNMFLLGEARSDVFGGIPFGGEATQGMERFPYNTLNAENPGISGFGDLYQNINQMNLFISRTLHTDVLTESARNYYLGQVYGLRAYYMYQLYRSWGDVVFTEEPSLGFEVGKLAKAATPAAEIFEQVKKDIESSLSYFGSDYTIKEKKSLWSKAATLMLKADVYLWSAHRDGGEGDARTAKNALVDIQNNISRSNLDLMDTYQGVFAYDNKGNKEIIFTIHNELFEYNLWNGNNDLFPQADYLGKFYNADGTLINTSVENNFGIMRLMVKLENFKKFLPGDTRRDVTLKDVYNKVENGKLELVGVYPHKYWGVMNGSTRVRCDDYPIYRYSDLLLMLAEAKVLLGEDPATEINRVRRRAFGDAYDASTVGFPNQEVDKRPADAVLQERLFEFMLEGKRWYDLRRFGDSYVLDYTPAEPARLLWPINQGALTNNPLLKQTVGY
# Legend:
# Assay in all cases: glycan array binding signal (z-score within array); higher = stronger binding
# Details in all cases: glycan notation: IUPAC condensed, linker removed
# [1] = biological target: GalNAc(b1-4)GlcNAc(b1-2)Man
# Method in brief: (§1)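 Arrays were curated from the Consortium for Functional Glycomics database, 3228 in total, and kept only where the protein sequence was available. Binding is expressed as a within-array Z-score. This score was averaged across arrays of the same protein sequence at different concentrations or buffers and across linkers, and negative values can be read as non-binding.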
# [2] = biological target: GalNAc(b1-4)GlcNAc(b1-2)Man(a1-3)[GalNAc(b1-4)GlcNAc(b1-2)Man(a1-6)]Man(b1-4)GlcNAc(b1-4)GlcNAc
# Method in brief: as §1
# [3] = biological target: GalNAc(b1-4)GlcNAc(b1-3)GalNAc(b1-4)GlcNAc
# Method in brief: as §1
# GalNAc(b1-4)GlcNAc6S = biological target: GalNAc(b1-4)GlcNAc6S
# Method in brief: as §1
# GalNAc(b1-6)GalNAc = biological target: GalNAc(b1-6)GalNAc
# Method in brief: as §1
# GalNAc3S(b1-4)GlcNAc = biological target: GalNAc3S(b1-4)GlcNAc
# Method in brief: as §1
# GalNAc3S(b1-4)GlcNAc3S = biological target: GalNAc3S(b1-4)GlcNAc3S
# Method in brief: as §1
# [4] = biological target: GalNAc3S(b1-4)[Fuc(a1-3)]GlcNAc
# Method in brief: as §1
# GalNAc4S6S(b1-4)GlcNAc = biological target: GalNAc4S6S(b1-4)GlcNAc
# Method in brief: as §1
# GalNAc6S(b1-4)GlcNAc = biological target: GalNAc6S(b1-4)GlcNAc
# Method in brief: as §1
# Glc(a1-4)Glc = biological target: Glc(a1-4)Glc
# Method in brief: as §1
# [5] = biological target: Glc(a1-4)Glc(a1-4)Glc(a1-4)Glc
# Method in brief: as §1
# Glc(a1-6)Glc(a1-6)Glc = biological target: Glc(a1-6)Glc(a1-6)Glc
# Method in brief: as §1
# [6] = biological target: Glc(a1-6)Glc(a1-6)Glc(a1-6)Glc
# Method in brief: as §1
# Glc(b1-4)Glc = biological target: Glc(b1-4)Glc
# Method in brief: as §1
# Glc(b1-6)Glc = biological target: Glc(b1-6)Glc
# Method in brief: as §1
# GlcA(b1-3)Gal = biological target: GlcA(b1-3)Gal
# Method in brief: as §1
# GlcA(b1-3)GlcNAc = biological target: GlcA(b1-3)GlcNAc
# Method in brief: as §1
# GlcA(b1-6)Gal = biological target: GlcA(b1-6)Gal
# Method in brief: as §1
# [7] = biological target: GlcA3S(b1-3)Gal(b1-4)GlcNAc(b1-2)Man
# Method in brief: as §1
# [8] = biological target: GlcA3S(b1-3)Gal(b1-4)GlcNAc(b1-3)Gal(b1-4)Glc
# Method in brief: as §1
# [9] = biological target: GlcNAc(a1-3)Gal(b1-4)GlcNAc
# Method in brief: as §1
# [10] = biological target: GlcNAc(a1-4)Gal(b1-3)GlcNAc
# Method in brief: as §1
# [11] = biological target: GlcNAc(a1-4)Gal(b1-4)GalNAc
# Method in brief: as §1
# [12] = biological target: GlcNAc(a1-4)Gal(b1-4)GlcNAc
# Method in brief: as §1
# [13] = biological target: GlcNAc(a1-4)Gal(b1-4)GlcNAc(b1-3)Gal(b1-4)Glc
# Method in brief: as §1
# [14] = biological target: GlcNAc(a1-4)Gal(b1-4)GlcNAc(b1-3)Gal(b1-4)GlcNAc
# Method in brief: as §1
# [15] = biological target: GlcNAc(a1-4)Gal(b1-4)GlcNAc(b1-3)Gal(b1-4)GlcNAc(b1-3)Gal(b1-4)GlcNAc
# Method in brief: as §1
# [16] = biological target: GlcNAc(a1-4)Gal(b1-4)GlcNAc(b1-3)Gal(b1-4)[Fuc(a1-3)]GlcNAc(b1-3)Gal(b1-4)[Fuc(a1-3)]GlcNAc
# Method in brief: as §1
# [17] = biological target: GlcNAc(a1-6)Gal(b1-4)GlcNAc
# Method in brief: as §1
# [18] = biological target: GlcNAc(b1-2)Gal(b1-3)GalNAc
# Method in brief: as §1
# [19] = biological target: GlcNAc(b1-2)Man(a1-3)[GlcNAc(b1-2)Man(a1-6)]Man(b1-4)GlcNAc(b1-4)GlcNAc
# Method in brief: as §1
# [20] = biological target: GlcNAc(b1-2)Man(a1-3)[GlcNAc(b1-2)Man(a1-6)]Man(b1-4)GlcNAc(b1-4)[Fuc(a1-6)]GlcNAc
# Method in brief: as §1
# [21] = biological target: GlcNAc(b1-2)Man(a1-3)[GlcNAc(b1-4)][GlcNAc(b1-2)Man(a1-6)]Man(b1-4)GlcNAc(b1-4)GlcNAc
# Method in brief: as §1
# [22] = biological target: GlcNAc(b1-2)Man(a1-3)[GlcNAc(b1-4)][GlcNAc(b1-2)Man(a1-6)]Man(b1-4)GlcNAc(b1-4)[Fuc(a1-6)]GlcNAc
# Method in brief: as §1
# [23] = biological target: GlcNAc(b1-2)[GlcNAc(b1-4)]Man(a1-3)[GlcNAc(b1-2)Man(a1-6)]Man(b1-4)GlcNAc(b1-4)GlcNAc
# Method in brief: as §1
# [24] = biological target: GlcNAc(b1-2)[GlcNAc(b1-4)]Man(a1-3)[GlcNAc(b1-4)][GlcNAc(b1-2)Man(a1-6)]Man(b1-4)GlcNAc(b1-4)GlcNAc
# Method in brief: as §1
# [25] = biological target: GlcNAc(b1-2)[GlcNAc(b1-4)]Man(a1-3)[GlcNAc(b1-4)][GlcNAc(b1-2)[GlcNAc(b1-6)]Man(a1-6)]Man(b1-4)GlcNAc(b1-4)GlcNAc
# Method in brief: as §1
# [26] = biological target: GlcNAc(b1-2)[GlcNAc(b1-4)]Man(a1-3)[GlcNAc(b1-4)][GlcNAc(b1-2)[GlcNAc(b1-6)]Man(a1-6)]Man(b1-4)GlcNAc(b1-4)[Fuc(a1-6)]GlcNAc
# Method in brief: as §1
# [27] = biological target: GlcNAc(b1-2)[GlcNAc(b1-6)]Man(a1-6)[GlcNAc(b1-2)Man(a1-3)]Man(b1-4)GlcNAc(b1-4)GlcNAc
# Method in brief: as §1
# [28] = biological target: GlcNAc(b1-2)[GlcNAc(b1-6)]Man(a1-6)[GlcNAc(b1-2)Man(a1-3)]Man(b1-4)GlcNAc(b1-4)[Fuc(a1-6)]GlcNAc
# Method in brief: as §1
# [29] = biological target: GlcNAc(b1-2)[GlcNAc(b1-6)]Man(a1-6)[GlcNAc(b1-4)][GlcNAc(b1-2)Man(a1-3)]Man(b1-4)GlcNAc(b1-4)GlcNAc
# Method in brief: as §1
# GlcNAc(b1-3)Fuc = biological target: GlcNAc(b1-3)Fuc
# Method in brief: as §1
# GlcNAc(b1-3)Gal = biological target: GlcNAc(b1-3)Gal
# Method in brief: as §1
# [30] = biological target: GlcNAc(b1-3)Gal(b1-3)GalNAc
# Method in brief: as §1
binder,measurement,setting,value
B1,glycan array binding signal (z-score),[1],-0.282
same,glycan array binding signal (z-score),[2],-0.394
same,glycan array binding signal (z-score),[3],-0.065
same,glycan array binding signal (z-score),GalNAc(b1-4)GlcNAc6S,-0.065
same,glycan array binding signal (z-score),GalNAc(b1-6)GalNAc,-0.289
same,glycan array binding signal (z-score),GalNAc3S(b1-4)GlcNAc,-0.727
same,glycan array binding signal (z-score),GalNAc3S(b1-4)GlcNAc3S,-0.275
same,glycan array binding signal (z-score),[4],-0.133
same,glycan array binding signal (z-score),GalNAc4S6S(b1-4)GlcNAc,-0.21
same,glycan array binding signal (z-score),GalNAc6S(b1-4)GlcNAc,-0.308
same,glycan array binding signal (z-score),Glc(a1-4)Glc,-0.49
same,glycan array binding signal (z-score),[5],-0.375
same,glycan array binding signal (z-score),Glc(a1-6)Glc(a1-6)Glc,-0.377
same,glycan array binding signal (z-score),[6],-0.405
same,glycan array binding signal (z-score),Glc(b1-4)Glc,-0.503
same,glycan array binding signal (z-score),Glc(b1-6)Glc,-0.108
same,glycan array binding signal (z-score),GlcA(b1-3)Gal,0.052
same,glycan array binding signal (z-score),GlcA(b1-3)GlcNAc,-0.435
same,glycan array binding signal (z-score),GlcA(b1-6)Gal,-0.446
same,glycan array binding signal (z-score),[7],-0.565
same,glycan array binding signal (z-score),[8],-0.24
same,glycan array binding signal (z-score),[9],-0.541
same,glycan array binding signal (z-score),[10],-0.056
same,glycan array binding signal (z-score),[11],-0.411
same,glycan array binding signal (z-score),[12],-0.365
same,glycan array binding signal (z-score),[13],-0.605
same,glycan array binding signal (z-score),[14],-0.505
same,glycan array binding signal (z-score),[15],-0.141
same,glycan array binding signal (z-score),[16],-0.405
same,glycan array binding signal (z-score),[17],-0.242
same,glycan array binding signal (z-score),[18],-0.374
same,glycan array binding signal (z-score),[19],-0.215
same,glycan array binding signal (z-score),[20],-0.178
same,glycan array binding signal (z-score),[21],0.281
same,glycan array binding signal (z-score),[22],-0.382
same,glycan array binding signal (z-score),[23],-0.032
same,glycan array binding signal (z-score),[24],-0.541
same,glycan array binding signal (z-score),[25],-0.123
same,glycan array binding signal (z-score),[26],-0.277
same,glycan array binding signal (z-score),[27],0.163
same,glycan array binding signal (z-score),[28],-0.475
same,glycan array binding signal (z-score),[29],-0.588
same,glycan array binding signal (z-score),GlcNAc(b1-3)Fuc,-0.441
same,glycan array binding signal (z-score),GlcNAc(b1-3)Gal,-0.181
same,glycan array binding signal (z-score),[30],-0.22
